The full ranking holds about 33,000 sequences; the median of “E-score (-0.5 to 0.5)” is about -0.035, and the highest 2% start at about 0.35. Some of the results follow.
Biological target: T1, Pdr3 (UniProt P33200)
T1 sequence: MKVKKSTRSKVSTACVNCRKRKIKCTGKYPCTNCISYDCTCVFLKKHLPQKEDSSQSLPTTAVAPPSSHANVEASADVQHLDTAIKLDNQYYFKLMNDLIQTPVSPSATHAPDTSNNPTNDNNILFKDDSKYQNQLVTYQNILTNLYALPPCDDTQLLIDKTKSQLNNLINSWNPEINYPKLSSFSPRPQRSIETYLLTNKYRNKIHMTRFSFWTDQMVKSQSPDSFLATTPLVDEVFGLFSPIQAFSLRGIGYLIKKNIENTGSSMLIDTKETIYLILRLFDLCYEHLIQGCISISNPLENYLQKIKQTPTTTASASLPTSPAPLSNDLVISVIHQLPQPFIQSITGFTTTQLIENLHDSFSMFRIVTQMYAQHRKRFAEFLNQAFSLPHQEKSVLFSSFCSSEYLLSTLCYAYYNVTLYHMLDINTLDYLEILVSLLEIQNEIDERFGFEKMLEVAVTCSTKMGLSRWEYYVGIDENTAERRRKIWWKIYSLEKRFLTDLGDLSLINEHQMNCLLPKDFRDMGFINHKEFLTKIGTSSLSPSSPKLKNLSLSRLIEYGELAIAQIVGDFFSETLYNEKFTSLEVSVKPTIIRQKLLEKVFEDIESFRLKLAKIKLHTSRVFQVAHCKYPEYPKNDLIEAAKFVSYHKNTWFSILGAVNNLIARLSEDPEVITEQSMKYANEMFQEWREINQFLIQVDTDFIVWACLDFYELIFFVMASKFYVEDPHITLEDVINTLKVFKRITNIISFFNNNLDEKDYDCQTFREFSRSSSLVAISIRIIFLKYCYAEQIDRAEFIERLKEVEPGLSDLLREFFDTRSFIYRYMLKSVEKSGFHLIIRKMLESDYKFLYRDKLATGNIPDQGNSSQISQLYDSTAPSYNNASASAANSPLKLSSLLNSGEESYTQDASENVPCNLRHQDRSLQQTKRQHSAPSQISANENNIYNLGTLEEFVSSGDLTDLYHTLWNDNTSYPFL
Assay: PBM E-score (8-mer binding enrichment) (E-score (-0.5 to 0.5)); higher = stronger / more preferred TF binding; most listed sequences are background and not binding sites
Conditions: protein concentration: 200 nM; construct: GST-full length
Description: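 Universal 'all 10-mer' protein binding microarrays (Agilent AMADID 015681) probed with GST-tagged S. cerevisiae TFs (full-length or DBD) made by in vitro transcription/translation (PURExpress), about 100-200 nM. Bound TF was detected with fluorescent anti-GST. Each ungapped 8-mer (which stands for itself and its reverse complement) is scored by the PBM enrichment score (E-score), a modified Wilcoxon-Mann-Whitney statistic from -0.5 to +0.5, computed with the Universal PBM Analysis Suite. Scale: above 0.35 generally sequence-specific binding.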

| Sequence | PBM E-score |
| --- | --- |
| GCTACTCA | -0.0408 |
| ATACAGGA | 0.117 |
| AGCGCACT | -0.0919 |
| ACCATCGG | 0.0635 |
| ACCGCGTA | 0.174 |
| CCAACGGA | 0.362 |
| AGAAACTC | 0.039 |
| CCGGTCAC | 0.175 |
| CTCAACTC | 0.137 |
| AACGAATG | 0.128 |
| CAGTATAC | -0.174 |
| CAAATACG | -0.17 |
| CGGGGTTC | 0.225 |
| GGGGGAAA | 0.138 |
| CTAAATGC | -0.0949 |
| AAAGGGAA | -0.175 |
| AAATCATG | -0.0701 |
| CCGTAAAG | 0.103 |
| GGCGCCCA | 0.099 |
| CTGGTGGA | -0.119 |
| CAAAGAGC | -0.0254 |
| GGAGCCCC | 0.00428 |

| Sequence | PBM E-score |
| --- | --- |
| CTTTTCAA | -0.154 |
| ATTCAGCA | -0.113 |
| CGCCGAGC | 0.124 |
| CCTTGTGC | -0.24 |
| CGTAGACA | -0.189 |
| TGCCCCAA | -0.0375 |
| GAGGTTAC | 0.0831 |
| GAAAATAC | 0.207 |
| ATGCGAAG | -0.0662 |
| CCAAAATA | 0.106 |
| AATCGATG | 0.069 |
| AAAGGTAC | 0.0362 |
| TCCCCCGA | 0.0813 |
| ATACTGAG | 0.051 |
| CATGTCAC | -0.00798 |
| CAACAGAA | -0.198 |
| ATTAGAAG | -0.0656 |
| AGGTTGCA | -0.0331 |
| ATCCGAGG | 0.305 |
| GATGGTTA | -0.0628 |
| CAGACAAG | -0.0844 |
| AAATCGAA | -0.041 |

| Sequence | PBM E-score |
| --- | --- |
| CAGGCCAG | -0.11 |
| CCAGGAGG | -0.165 |
| CATCTGCC | 0.00366 |
| TAATCAGA | 0.035 |
| CATTTCAC | 0.0403 |
| CTCCGCAC | 0.0622 |
| GCCCTCAC | -0.147 |
| CCCCTCCA | -0.198 |
| AGATTCCC | 0.198 |
| ACGATGGG | -0.0145 |
| CTATAACA | -0.256 |
| CCTGGGGC | -0.0901 |
| AACTGCTC | 0.081 |
| CGCTCTCC | -0.00505 |
| ACATGAAT | -0.0685 |
| CGTGCAAC | -0.0779 |
| GTCTTAGA | -0.106 |
| AATACAGG | 0.0365 |
| GCTGCTAA | 0.0385 |
| ATAACGGA | 0.386 |
| AGGCTTAT | -0.181 |
| ATAGCCTA | -0.173 |

| Sequence | PBM E-score |
| --- | --- |
| CCATTATC | -0.00386 |
| CCAGTCCG | 0.175 |
| AACAGATC | -0.0307 |
| GTTGGCTA | 0.0327 |
| ACGCGCCC | 0.0361 |
| GGGTTACC | 0.0101 |
| AACGAGTA | 0.0102 |
| CGTGGATA | 0.0566 |
| ATCCAGTC | 0.0785 |
| AAGCGGTC | 0.00531 |
| ACGTTCAG | -0.203 |
| GCGGTACA | 0.0115 |
| AGCACACT | 0.0117 |
| AGACTACC | -0.0458 |
| ATCAAACC | 0.0783 |
| GCATAGCC | -0.224 |
| ACAACCCC | 0.0138 |
| GATGGTAC | 0.0447 |
| ATCAGATC | -0.0678 |
| CAATTGTA | 0.0227 |

Source: the supplement of paper PMC3334620
